Reference: a collection of fitness landscapes (doi:10.1126/science.1257360)
The list shows a part of the results.

B1: PhoQ; a variant is named by its letters at X, in order, P23837 (parent)
chain: MKKLLRLFFPLSLRVRFLLATAAVVLVLSLAYGMVALIGYSVSFDKTTFRLLRGESNLFYTLAKWENNKLHVELPENIDKQSPTMTLIYDENGQLLWAQRDVPWLMKMIQPDWLKSNGFHEIEADVNDTSLLLSGDHSIQQQLQEVREDDDDAEMTHSVAVNVYPATSRMPKLTIVVVDTIPVELKSSYMVWSWFIYVLSANLLLVIPLLWVAAWWSLRPIEALAKEVRELEEHNRELLNPATTRELTSLVRNLNRLLKSERERYDKYRTTLTDLTHSLKTPLXXLQXXLRSLRSEKMSVSDAEPVMLEQISRISQQIGYYLHRASMRGGTLLSRELHPVAPLLDNLTSALNKVYQRKGVNISLDISPEISFVGEQNDFVEVMGNVLDNACKYCLEFVEISARQTDEHLYIVVEDDGPGIPLSKREVIFDRGQRVDTLRPGQGVGLAVAREITEQYEGKIVAGESMLGGARMEVIFGRQHSAPKDE

Variants of: B1
Assay: enrichment ratio after two sorts for PhoP signalling (ratio (wild type AVST 3.29)); higher = more functional
Settings: with PhoP (E. coli)

How did the enrichment ratio turn out when CPHV was run?
The enrichment ratio was at most 0.25.

Which enrichment ratio does the source give for HWPQ here?
Its enrichment ratio is at most 0.25.

How did the enrichment ratio turn out when ENQH was run?
Its enrichment ratio is at most 0.25.

With GDGD as the variant, how does the enrichment ratio read?
The enrichment ratio was at most 0.25.

With FPPF as the variant, how does the enrichment ratio read?
The enrichment ratio was at most 0.25.

How did the enrichment ratio turn out when LFIE was run?
Its enrichment ratio is at most 0.25.

How did the enrichment ratio turn out when NHGT was run?
The enrichment ratio was at most 0.25.

For PYYG, which enrichment ratio is on record?
The enrichment ratio was at most 0.25.

With DFMD as the variant, how does the enrichment ratio read?
Its enrichment ratio is at most 0.25.

Which enrichment ratio does the source give for WASN here?
Its enrichment ratio is at most 0.25.

Which enrichment ratio does the source give for ETFM here?
The enrichment ratio was at most 0.25.

With QAKA as the variant, how does the enrichment ratio read?
The enrichment ratio was at most 0.25.

Which enrichment ratio does the source give for LVNP here?
The enrichment ratio was at most 0.25.

How did the enrichment ratio turn out when RDAF was run?
The enrichment ratio was at most 0.25.

For VQFP, which enrichment ratio is on record?
The enrichment ratio was at most 0.25.

Which enrichment ratio does the source give for GIPN here?
Its enrichment ratio is at most 0.25.

Which enrichment ratio does the source give for GKTE here?
The enrichment ratio was at most 0.25.

With AFLC as the variant, how does the enrichment ratio read?
The enrichment ratio was 4.94.

RWAV was tested. Which enrichment ratio did it give?
The enrichment ratio was at most 0.25.

How did the enrichment ratio turn out when AAIS was run?
The enrichment ratio was 2.64.

For FVVM, which enrichment ratio is on record?
Its enrichment ratio is at most 0.25.

With IMTY as the variant, how does the enrichment ratio read?
Its enrichment ratio is at most 0.25.

With PAGC as the variant, how does the enrichment ratio read?
Its enrichment ratio is at most 0.25.

How did the enrichment ratio turn out when LTNP was run?
The enrichment ratio was at most 0.25.

How did the enrichment ratio turn out when QCIQ was run?
Its enrichment ratio is at most 0.25.

For WVFM, which enrichment ratio is on record?
Its enrichment ratio is at most 0.25.

With PMGD as the variant, how does the enrichment ratio read?
Its enrichment ratio is at most 0.25.

Which enrichment ratio does the source give for NPIA here?
The enrichment ratio was at most 0.25.

For AKVN, which enrichment ratio is on record?
The enrichment ratio was at most 0.25.

For WAQK, which enrichment ratio is on record?
The enrichment ratio was at most 0.25.

IADD was tested. Which enrichment ratio did it give?
Its enrichment ratio is at most 0.25.

HHTA was tested. Which enrichment ratio did it give?
Its enrichment ratio is at most 0.25.

Which enrichment ratio does the source give for LDWS here?
The enrichment ratio was at most 0.25.

NRSS was tested. Which enrichment ratio did it give?
Its enrichment ratio is at most 0.25.

Which enrichment ratio does the source give for LTYI here?
Its enrichment ratio is at most 0.25.

How did the enrichment ratio turn out when YWMS was run?
Its enrichment ratio is at most 0.25.

For DEGA, which enrichment ratio is on record?
The enrichment ratio was at most 0.25.

How did the enrichment ratio turn out when WRVL was run?
The enrichment ratio was at most 0.25.

YWVG was tested. Which enrichment ratio did it give?
Its enrichment ratio is at most 0.25.

For SMGS, which enrichment ratio is on record?
Its enrichment ratio is 1.09.

How did the enrichment ratio turn out when ALSM was run?
The enrichment ratio was 17.

For WHHM, which enrichment ratio is on record?
The enrichment ratio was at most 0.25.

With SPRM as the variant, how does the enrichment ratio read?
Its enrichment ratio is at most 0.25.

For MMEY, which enrichment ratio is on record?
Its enrichment ratio is at most 0.25.

Which enrichment ratio does the source give for EPSC here?
The enrichment ratio was at most 0.25.

With MLKT as the variant, how does the enrichment ratio read?
The enrichment ratio was at most 0.25.

Which enrichment ratio does the source give for QAVI here?
The enrichment ratio was at most 0.25.

For QYRC, which enrichment ratio is on record?
Its enrichment ratio is at most 0.25.

How did the enrichment ratio turn out when KNIM was run?
The enrichment ratio was at most 0.25.

With IHTF as the variant, how does the enrichment ratio read?
The enrichment ratio was at most 0.25.

With PVRV as the variant, how does the enrichment ratio read?
Its enrichment ratio is at most 0.25.

FIVP was tested. Which enrichment ratio did it give?
The enrichment ratio was at most 0.25.

For YFYT, which enrichment ratio is on record?
The enrichment ratio was at most 0.25.

Which enrichment ratio does the source give for DEDS here?
The enrichment ratio was at most 0.25.

For QGCW, which enrichment ratio is on record?
Its enrichment ratio is at most 0.25.

How did the enrichment ratio turn out when IQYV was run?
The enrichment ratio was at most 0.25.

Which enrichment ratio does the source give for SGCY here?
The enrichment ratio was 10.6.

Which enrichment ratio does the source give for KCPD here?
The enrichment ratio was at most 0.25.

IAAH was tested. Which enrichment ratio did it give?
Its enrichment ratio is at most 0.25.

Which enrichment ratio does the source give for NGKN here?
Its enrichment ratio is at most 0.25.

With SKYR as the variant, how does the enrichment ratio read?
Its enrichment ratio is at most 0.25.

How did the enrichment ratio turn out when WIFA was run?
Its enrichment ratio is at most 0.25.

VCHR was tested. Which enrichment ratio did it give?
The enrichment ratio was at most 0.25.

Which enrichment ratio does the source give for MCSH here?
The enrichment ratio was 4.62.

For NQWF, which enrichment ratio is on record?
The enrichment ratio was at most 0.25.

For LALK, which enrichment ratio is on record?
The enrichment ratio was at most 0.25.

How did the enrichment ratio turn out when PMFC was run?
Its enrichment ratio is at most 0.25.

For WATY, which enrichment ratio is on record?
The enrichment ratio was at most 0.25.

Which enrichment ratio does the source give for KHGI here?
Its enrichment ratio is at most 0.25.

YEYH was tested. Which enrichment ratio did it give?
Its enrichment ratio is at most 0.25.

For YFIT, which enrichment ratio is on record?
Its enrichment ratio is at most 0.25.

For IEYT, which enrichment ratio is on record?
The enrichment ratio was at most 0.25.

For EKWF, which enrichment ratio is on record?
The enrichment ratio was at most 0.25.

Which enrichment ratio does the source give for RRLY here?
The enrichment ratio was at most 0.25.

IPWH was tested. Which enrichment ratio did it give?
Its enrichment ratio is at most 0.25.

Which enrichment ratio does the source give for VNPY here?
Its enrichment ratio is at most 0.25.

How did the enrichment ratio turn out when HAFH was run?
Its enrichment ratio is at most 0.25.

For DMGV, which enrichment ratio is on record?
Its enrichment ratio is at most 0.25.

Which enrichment ratio does the source give for SRCY here?
The enrichment ratio was at most 0.25.

With FSKN as the variant, how does the enrichment ratio read?
The enrichment ratio was at most 0.25.

For FADV, which enrichment ratio is on record?
Its enrichment ratio is at most 0.25.

How did the enrichment ratio turn out when KLRM was run?
The enrichment ratio was at most 0.25.

With WLYV as the variant, how does the enrichment ratio read?
Its enrichment ratio is at most 0.25.

FATE was tested. Which enrichment ratio did it give?
The enrichment ratio was at most 0.25.

How did the enrichment ratio turn out when KQYY was run?
Its enrichment ratio is at most 0.25.

For MGDN, which enrichment ratio is on record?
The enrichment ratio was at most 0.25.

LSAT was tested. Which enrichment ratio did it give?
The enrichment ratio was at most 0.25.

For TKDT, which enrichment ratio is on record?
The enrichment ratio was at most 0.25.

DRGD was tested. Which enrichment ratio did it give?
The enrichment ratio was at most 0.25.

Which enrichment ratio does the source give for GYNP here?
Its enrichment ratio is at most 0.25.

Which enrichment ratio does the source give for TAYE here?
Its enrichment ratio is at most 0.25.

With GKFF as the variant, how does the enrichment ratio read?
The enrichment ratio was at most 0.25.

For NDHF, which enrichment ratio is on record?
The enrichment ratio was at most 0.25.

How did the enrichment ratio turn out when STHK was run?
The enrichment ratio was at most 0.25.

How did the enrichment ratio turn out when EGFS was run?
Its enrichment ratio is at most 0.25.

MQSN was tested. Which enrichment ratio did it give?
Its enrichment ratio is at most 0.25.

With MWYM as the variant, how does the enrichment ratio read?
Its enrichment ratio is at most 0.25.

Which enrichment ratio does the source give for NVIY here?
The enrichment ratio was at most 0.25.

Which enrichment ratio does the source give for DHGY here?
The enrichment ratio was at most 0.25.

Which enrichment ratio does the source give for MHDF here?
Its enrichment ratio is at most 0.25.

Which enrichment ratio does the source give for YSQV here?
The enrichment ratio was at most 0.25.

With TSVL as the variant, how does the enrichment ratio read?
The enrichment ratio was 1.48.

How did the enrichment ratio turn out when VYGD was run?
Its enrichment ratio is at most 0.25.

How did the enrichment ratio turn out when WRKY was run?
Its enrichment ratio is at most 0.25.

YAYD was tested. Which enrichment ratio did it give?
The enrichment ratio was at most 0.25.

With RLWV as the variant, how does the enrichment ratio read?
The enrichment ratio was at most 0.25.

With DEVW as the variant, how does the enrichment ratio read?
Its enrichment ratio is at most 0.25.

Which enrichment ratio does the source give for LWRD here?
Its enrichment ratio is at most 0.25.

Which enrichment ratio does the source give for VETG here?
The enrichment ratio was at most 0.25.

RYYA was tested. Which enrichment ratio did it give?
The enrichment ratio was at most 0.25.

With FSHR as the variant, how does the enrichment ratio read?
Its enrichment ratio is at most 0.25.

For MKRR, which enrichment ratio is on record?
The enrichment ratio was at most 0.25.

For MCPG, which enrichment ratio is on record?
The enrichment ratio was at most 0.25.

How did the enrichment ratio turn out when ITMK was run?
The enrichment ratio was at most 0.25.

For FWIW, which enrichment ratio is on record?
Its enrichment ratio is at most 0.25.

Which enrichment ratio does the source give for ACLR here?
Its enrichment ratio is 8.18.

How did the enrichment ratio turn out when TQQC was run?
The enrichment ratio was 3.39.

YPRP was tested. Which enrichment ratio did it give?
Its enrichment ratio is at most 0.25.

With QRTP as the variant, how does the enrichment ratio read?
The enrichment ratio was at most 0.25.

Which enrichment ratio does the source give for DLLR here?
The enrichment ratio was at most 0.25.

For MRGI, which enrichment ratio is on record?
Its enrichment ratio is at most 0.25.

How did the enrichment ratio turn out when KTSH was run?
The enrichment ratio was at most 0.25.

With LCYF as the variant, how does the enrichment ratio read?
Its enrichment ratio is at most 0.25.

For LSNP, which enrichment ratio is on record?
The enrichment ratio was at most 0.25.

For TQCL, which enrichment ratio is on record?
Its enrichment ratio is 12.5.

With MIWH as the variant, how does the enrichment ratio read?
The enrichment ratio was 6.22.

Which enrichment ratio does the source give for LAAA here?
Its enrichment ratio is at most 0.25.

For FCVD, which enrichment ratio is on record?
Its enrichment ratio is at most 0.25.

How did the enrichment ratio turn out when NWLE was run?
Its enrichment ratio is at most 0.25.

Which enrichment ratio does the source give for LIDP here?
The enrichment ratio was at most 0.25.

For WNTP, which enrichment ratio is on record?
Its enrichment ratio is at most 0.25.

Which enrichment ratio does the source give for NTET here?
The enrichment ratio was at most 0.25.

YWYA was tested. Which enrichment ratio did it give?
Its enrichment ratio is at most 0.25.

Which enrichment ratio does the source give for HCLI here?
The enrichment ratio was 0.803.

Which enrichment ratio does the source give for KSFW here?
Its enrichment ratio is at most 0.25.

DCLC was tested. Which enrichment ratio did it give?
Its enrichment ratio is at most 0.25.

For GVPY, which enrichment ratio is on record?
The enrichment ratio was at most 0.25.

MLLE was tested. Which enrichment ratio did it give?
Its enrichment ratio is at most 0.25.

With ILAG as the variant, how does the enrichment ratio read?
The enrichment ratio was at most 0.25.

For YCKY, which enrichment ratio is on record?
The enrichment ratio was at most 0.25.

For AHRG, which enrichment ratio is on record?
Its enrichment ratio is at most 0.25.

Which enrichment ratio does the source give for ITKV here?
Its enrichment ratio is at most 0.25.

Which enrichment ratio does the source give for TPDP here?
Its enrichment ratio is at most 0.25.

With ISVD as the variant, how does the enrichment ratio read?
The enrichment ratio was at most 0.25.

How did the enrichment ratio turn out when IMGA was run?
The enrichment ratio was at most 0.25.

For TVWQ, which enrichment ratio is on record?
The enrichment ratio was 2.86.

Which enrichment ratio does the source give for NNVH here?
Its enrichment ratio is at most 0.25.

How did the enrichment ratio turn out when QADT was run?
The enrichment ratio was at most 0.25.

QQFT was tested. Which enrichment ratio did it give?
Its enrichment ratio is 2.46.

YQDG was tested. Which enrichment ratio did it give?
The enrichment ratio was at most 0.25.

For KQFA, which enrichment ratio is on record?
Its enrichment ratio is at most 0.25.

Which enrichment ratio does the source give for YNAE here?
Its enrichment ratio is at most 0.25.

With QQVE as the variant, how does the enrichment ratio read?
Its enrichment ratio is at most 0.25.
